# From PubChem BioAssay AID588855 (National Center for Advancing Translational Sciences (NCATS), 2011)
# The campaign covered roughly 410,000 compounds. About 5,000 (1.2%) were called active. Inconclusive means that the source gave no clear call. Such entries were picked first, then a sample of the others. The call rests on the fitted dose curve; in most records, active means well fitted inhibition curve with a large enough effect; inconclusive means small, poorly fitted or top-dose-only effect; inactive means no such curve, though single readings can be large or run the other way. Potencies of inconclusive entries are doubtful fits and often do not repeat.
# Test: qHTS for Inhibitors of TGF-b; further: nearly all actives have a fitted effect of over 65% in size
# Details: HepG2 CAGA-GFP TGF-b/SMAD3 reporter, GFP fluorescence, 18 h, TGF-beta stimulated, 500 pg/mL final; series mostly up to 46.1 µM
# Outline: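 Read-out: total well GFP (ex488/em500-530) summed from mean per-cell fluorescence. Cells: HEPG2 CAGA-GFP, 1% FBS DMEM, 18 h at 37 degrees C with 500 pg/mL final TGF-beta. Unstimulated wells served as the full-inhibition control; stimulated DMSO wells = 0%.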
# Potency means the concentration at half of the fitted maximal effect; tags describe the fitted curve by direction and shape.
row,Structure (SMILES),Potency
1,Cc1cc(NC(=O)c2ccc(C)s2)n(-c2nc3ccccc3[nH]2)n1,"inconclusive: 20 µM [inhibitor, single point]"
2,CCNC(=O)CN(c1ccc(Oc2ccccc2)cc1)S(=O)(=O)c1ccccc1,inactive
3,Clc1ccc(OCc2nnc(SCc3nnc(-c4ccccc4)o3)o2)c(Cl)c1,"inconclusive: 35.5 µM [inhibitor, single point]"
4,COC(=O)CNc1cc(S(=O)(=O)N2CCCCC2)ccc1Oc1ccc(C(=O)OC)cc1,inactive
5,CC(C)(C)c1ccc(Cn2nnc3c(=O)[nH]c(C4CCCN(C(=O)Cc5cccs5)C4)nc32)cc1 (stereo not drawn),"inconclusive: 31.6 µM [inhibitor, single point]"
6,Cc1ccc(C(=O)N2CCN(c3ncccn3)CC2)cc1,inactive
7,Cc1ccc(NC(=O)C2CCC2)cc1S(=O)(=O)N1CCCCCC1,inactive
8,O=C(CCS(=O)(=O)c1ccccc1)Nc1nnc(C(F)(F)F)s1,"inconclusive: 35.5 µM [inhibitor, single point]"
9,Cc1ccc(C)c(N2CCN(S(=O)(=O)c3csc(C(N)=O)c3)CC2)c1,"inconclusive: 11.2 µM [inhibitor, partial curve, poor fit]"
10,CC1CCN(S(=O)(=O)c2cc(Br)cc(C(=O)NC3=NCCS3)c2)CC1,"inconclusive: 8.91 µM [inhibitor, partial curve, poor fit]"
11,COC(=O)c1ccc(CSc2nnc(CS(=O)Cc3ccc(Br)cc3)n2-c2ccccc2)cc1 (stereo not drawn),"inconclusive: 6.31 µM [inhibitor, partial curve]"
12,Cc1ccc(/C=C/C(=O)c2ccccc2)cc1,"inconclusive: 35.5 µM [inhibitor, single point]"
13,Cc1ccccc1CSCCNC(=O)CN(c1ccccc1)S(=O)(=O)N(C)C,inactive
14,O=[N+]([O-])c1ccc(/C=N/NC(=S)Nc2ccccc2)o1,"inconclusive: 22.4 µM [inhibitor, partial curve, poor fit]"
15,COc1ccccc1CNC(=O)c1cc2ccc3ccc(C)[nH]c3c2n1,"inconclusive: 35.5 µM [inhibitor, partial curve, poor fit]"
16,COC(=O)C1=CN(Cc2cccs2)C=C(C(=O)OC)C1c1cccc(Cl)c1,"inconclusive: 20 µM [inhibitor, partial curve, poor fit]"
17,O=C(NCCCN1CCN(c2ccccc2F)CC1)C1CCCN(S(=O)(=O)c2cnc[nH]2)C1 (stereo not drawn),inactive
18,COc1ccc(C(NC(=O)c2cccnc2)c2cc(Cl)c3cccnc3c2O)cc1OC (stereo not drawn),"inconclusive: 1 µM [inhibitor, full curve, poor fit]"
